According to publication PMC3062594, “Intermolecular masking of the HIV-1 Rev NLS by the cellular protein HIC: Novel insights into the regulation of Rev nuclear import” (Retrovirology, 2011):
Results are given in words; binding and its absence hold for the method and conditions named. For part of these data: In cells and extracts the contact can be indirect. Some results given as binding are weak or reduced against the parent protein; the word gives no strength. For part of these data: Sequences can lack the tags named with a protein.

By UniProt entry, the sequences of proteins in these tests, tags left out.
UniProt Q92973: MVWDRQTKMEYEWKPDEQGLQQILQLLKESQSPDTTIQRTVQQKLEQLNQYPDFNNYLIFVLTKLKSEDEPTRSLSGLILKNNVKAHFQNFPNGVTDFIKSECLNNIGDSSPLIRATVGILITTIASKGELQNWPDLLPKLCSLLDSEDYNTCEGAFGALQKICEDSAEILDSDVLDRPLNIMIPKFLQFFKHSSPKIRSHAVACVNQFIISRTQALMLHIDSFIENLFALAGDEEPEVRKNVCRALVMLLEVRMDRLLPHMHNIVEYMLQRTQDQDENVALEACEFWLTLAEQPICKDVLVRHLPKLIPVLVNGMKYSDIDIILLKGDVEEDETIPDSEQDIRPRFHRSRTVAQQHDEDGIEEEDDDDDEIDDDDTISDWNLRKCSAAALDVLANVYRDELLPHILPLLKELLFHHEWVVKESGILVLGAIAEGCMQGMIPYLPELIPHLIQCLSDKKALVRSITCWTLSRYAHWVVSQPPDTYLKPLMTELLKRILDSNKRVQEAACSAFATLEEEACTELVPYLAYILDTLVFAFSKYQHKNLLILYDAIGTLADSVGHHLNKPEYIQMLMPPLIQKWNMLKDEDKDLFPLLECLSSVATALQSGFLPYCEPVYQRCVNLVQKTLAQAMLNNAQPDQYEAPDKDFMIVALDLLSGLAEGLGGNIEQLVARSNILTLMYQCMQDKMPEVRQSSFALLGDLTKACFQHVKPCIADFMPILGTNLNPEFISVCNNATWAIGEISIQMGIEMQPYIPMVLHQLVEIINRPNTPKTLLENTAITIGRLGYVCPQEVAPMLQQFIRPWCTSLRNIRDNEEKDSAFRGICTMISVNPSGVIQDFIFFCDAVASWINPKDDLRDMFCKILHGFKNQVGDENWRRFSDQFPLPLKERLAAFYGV

B1: recombinant 6×His-HIC (Human I-mfa domain-Containing protein) (protein, UniProt Q9P1T7-2 1-246)
chain: MSGAGEALAPGPVGPQRVAEAGGGQLGSTAQGKCDKDNTEKDITQATNSHFTHGEMQDQSIWGNPSDGELIRTQPQRLPQLQTSAQVPSGEEIGKIKNGHTGLSNGNGIHHGAKHGSADNRKLSAPVSQKMHRKIQSSLSVNSDISKKSKVNAVFSQKTGSSPEDCCVHCILACLFCEFLTLCNIVLGQASCGICTSEACCCCCGDEMGDDCNCPCDMDCGIMDACCESSDCLEICMECCGICFPS
B2: FLAG-HIC (pFLAG-HIC) (protein, UniProt Q9P1T7-2 1-246)
chain: B1 chain

Assays:
[1] = molecular target: HA-Rev (pCAGGS-HA-Rev, aa 1-116) (HIV-1) (UniProt P04618); test: co-IP
[2] = molecular target: GST-YFP-RevNLS (aa35-46) (HIV-1) (UniProt P04618); test: pull-down; both purified
[3] = molecular target: GST-YFP-Rev (aa1-116) (HIV-1) (UniProt P04618); test: pull-down; both purified
[4] = molecular target: GST-YFP-Rev (aa1-116) (HIV-1) (UniProt P04618); test: pull-down; purified recombinant HIC incubated with immobilised GST-YFP (control) and GST fusion proteins (bait); eluted, SDS-PAGE; HIC detected by Western blot; both purified
[5] = molecular target: GST-YFP-RevΔN1 (aa35-116) (HIV-1) (UniProt P04618); test: as above
[6] = molecular target: GST-YFP-RevΔN2 (aa46-116) (HIV-1) (UniProt P04618); test: as above

Molecule	binding [1]	binding [3]	further results
FLAG-HIC (2-144) (from UniProt Q9P1T7-2 2-144) (domain or fragment)	no binding	–	–
FLAG-HIC (144-246) (from UniProt Q9P1T7-2 144-246) (domain or fragment)	binds	–	–
recombinant transportin C-His (from UniProt Q92973 1-898)	–	binds	binding [2]: binds
B1	–	binds	binding [4]: binds; binding [5]: binds; binding [6]: no binding
B2	binds	–	–
